Laboratory results published in the BET-seq Pho4 binding data (Le et al. 2018).
The list shows a part of the results. The energies were worked out here from pooled read counts, against the library average; single values are noisy.

Biological target: T1, Pho4 (S. cerevisiae) (UniProt P07270)
T1 sequence: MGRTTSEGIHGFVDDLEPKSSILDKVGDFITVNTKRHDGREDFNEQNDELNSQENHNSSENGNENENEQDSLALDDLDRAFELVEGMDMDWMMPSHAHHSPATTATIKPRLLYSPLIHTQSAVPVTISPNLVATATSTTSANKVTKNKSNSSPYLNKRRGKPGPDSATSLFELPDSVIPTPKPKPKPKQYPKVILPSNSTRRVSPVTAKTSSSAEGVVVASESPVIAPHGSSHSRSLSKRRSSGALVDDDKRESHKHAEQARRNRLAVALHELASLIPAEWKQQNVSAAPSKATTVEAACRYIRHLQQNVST
Test: relative binding free energy (BET-seq); higher = weaker binding
Conditions: reference: library average

Row | Sequence | relative binding free energy
1 | GATTACACGTGGAAGT | 0.15 kcal/mol
2 | TTATTCACGTGGTAAC | 0.24 kcal/mol
3 | TGTCGCACGTGAAATG | 0.2 kcal/mol
4 | CTGGCCACGTGAGGGT | 0 kcal/mol
5 | GGCTTCACGTGGCGTT | 0.2 kcal/mol
6 | CGGTTCACGTGGGATG | 0.09 kcal/mol
7 | AATTGCACGTGTGTCT | 0.11 kcal/mol
8 | TTGTGCACGTGTAATG | 0.15 kcal/mol
9 | GACGTCACGTGTTATT | 0.24 kcal/mol
10 | ATGAGCACGTGATGAG | 0.15 kcal/mol
11 | AATAGCACGTGAGTAT | 0.21 kcal/mol
12 | CGGGCCACGTGGATTT | 0.15 kcal/mol
13 | TATGTCACGTGGTGCA | -0.04 kcal/mol
14 | GTTCGCACGTGAAGGA | 0.37 kcal/mol
15 | TGGTTCACGTGCTGCT | 0.26 kcal/mol
16 | TAATTCACGTGAGATT | 0.52 kcal/mol
17 | AGGATCACGTGTAGAT | 0.27 kcal/mol
18 | GTTGGCACGTGCTGCG | -0.22 kcal/mol
19 | GATCTCACGTGGGGGT | 0.14 kcal/mol
20 | TGTCGCACGTGAGTCT | 0.16 kcal/mol
21 | AGTAACACGTGTCGGT | 0.02 kcal/mol
22 | GGTGTCACGTGACTGT | 0.27 kcal/mol
23 | AGCGACACGTGGGGTT | -0.05 kcal/mol

Row | Sequence | relative binding free energy
24 | ATTAGCACGTGCGTTT | 0.01 kcal/mol
25 | GTTGGCACGTGCGTAT | -0.13 kcal/mol
26 | GGTATCACGTGGTGAT | 0.11 kcal/mol
27 | GTGGCCACGTGTCTGG | -0.1 kcal/mol
28 | ATGGGCACGTGTACGG | -0.11 kcal/mol
29 | TGTTCCACGTGATGTT | 0.2 kcal/mol
30 | TTTGACACGTGTTAGC | 0.18 kcal/mol
31 | ATACTCACGTGTGGGA | 0.29 kcal/mol
32 | TGGGTCACGTGAGCTA | 0.28 kcal/mol
33 | AAGGTCACGTGGGAGT | -0.04 kcal/mol
34 | TCGGGCACGTGTGGCA | -0.05 kcal/mol
35 | TTATGCACGTGAGAAG | 0.15 kcal/mol
36 | ATTATCACGTGGAAAG | 0.15 kcal/mol
37 | ATTGGCACGTGGATGA | -0.03 kcal/mol
38 | GTCGACACGTGGTAGT | 0.17 kcal/mol
39 | AGTTGCACGTGTAGCT | -0.09 kcal/mol
40 | CGGGTCACGTGAGTCG | 0.29 kcal/mol
41 | AGGGGCACGTGCGGGT | -0.18 kcal/mol
42 | TGGTCCACGTGTGGCA | 0.16 kcal/mol
43 | GGCGTCACGTGGAAGT | 0.26 kcal/mol
44 | GGATACACGTGTTGGC | 0.16 kcal/mol
45 | TGTGTCACGTGTAATT | 0.28 kcal/mol
46 | TTCAGCACGTGGAAGT | -0.01 kcal/mol

Row | Sequence | relative binding free energy
47 | TATGACACGTGGGAGT | -0.05 kcal/mol
48 | GTAATCACGTGAGTAT | 0.37 kcal/mol
49 | TGGTTCACGTGTTAGC | 0.35 kcal/mol
50 | GAATTCACGTGATATG | 0.29 kcal/mol
51 | GTTGCCACGTGAGTGC | 0.19 kcal/mol
52 | TTTTCCACGTGACGGT | 0.21 kcal/mol
53 | AGGGACACGTGTTTGG | 0.01 kcal/mol
54 | GGGTCCACGTGTTCAT | 0.28 kcal/mol
55 | CAAGGCACGTGGTTAG | -0.24 kcal/mol
56 | AGTGTCACGTGTGCTT | 0.06 kcal/mol
57 | GTTTTCACGTGATTGA | 0.49 kcal/mol
58 | GAGTACACGTGGCCGG | 0.21 kcal/mol
59 | CGTTGCACGTGGAAAG | 0.09 kcal/mol
60 | TGGGCCACGTGCGTTG | -0.17 kcal/mol
61 | GTCTCCACGTGGGGGT | -0.14 kcal/mol
62 | GCGTTCACGTGGGTCT | 0.2 kcal/mol
63 | GGCGGCACGTGGGAAT | -0.03 kcal/mol
64 | GCGTTCACGTGGTATT | 0.36 kcal/mol
65 | GGATTCACGTGACGGT | 0.44 kcal/mol
66 | TTCGGCACGTGGTGCG | -0.31 kcal/mol
67 | TTTATCACGTGTAAAA | 0.28 kcal/mol
68 | TAGTGCACGTGATGTG | 0.1 kcal/mol
69 | GAACGCACGTGCGGGT | -0.05 kcal/mol

Row | Sequence | relative binding free energy
70 | GAGTGCACGTGGTGCG | -0.08 kcal/mol
71 | AGGAACACGTGCAGGG | -0.03 kcal/mol
72 | CGGGGCACGTGTAGAA | 0.15 kcal/mol
73 | GGTTGCACGTGTTCGG | -0.05 kcal/mol
74 | TGGTTCACGTGATATG | 0.36 kcal/mol
75 | AGTATCACGTGGTGTC | -0.1 kcal/mol
76 | GTGTTCACGTGTCTGG | 0.33 kcal/mol
77 | AGGTACACGTGGGTAG | 0.03 kcal/mol
78 | TTGGCCACGTGTTTGA | 0.11 kcal/mol
79 | CGGTACACGTGAGTGG | 0.3 kcal/mol
80 | TGGCGCACGTGTTAAG | 0.02 kcal/mol
81 | GGATGCACGTGGTCTT | 0.05 kcal/mol
82 | AATTTCACGTGTTTGA | 0.15 kcal/mol
83 | ATACACACGTGTGTGG | 0.14 kcal/mol
84 | TTTCTCACGTGGCGGG | 0.11 kcal/mol
85 | TCAGTCACGTGATATG | 0.21 kcal/mol
86 | AGGATCACGTGGGGTC | -0.02 kcal/mol
87 | TTTTTCACGTGACCGT | 0.25 kcal/mol
88 | CTGGGCACGTGTGGTA | -0.08 kcal/mol
89 | TGCAGCACGTGTGGCG | -0.01 kcal/mol
90 | TTTGGCACGTGATCTA | -0.04 kcal/mol
91 | ATGCACACGTGGGGTG | -0.22 kcal/mol
92 | ATCGTCACGTGAGGGA | 0.19 kcal/mol

Row | Sequence | relative binding free energy
93 | TGCTGCACGTGGGTAG | -0.09 kcal/mol
94 | TTAGACACGTGTTGAT | -0.06 kcal/mol
95 | GATATCACGTGTGTAT | 0.11 kcal/mol
96 | TATGGCACGTGCTTTA | -0.19 kcal/mol
97 | TATCACACGTGAGGTT | 0.38 kcal/mol
98 | GTTGCCACGTGTGTTT | 0.14 kcal/mol
99 | GTGTTCACGTGTGGAT | 0.36 kcal/mol
100 | TCTTACACGTGGTTAG | -0.02 kcal/mol
101 | TATATCACGTGCGTTA | 0.05 kcal/mol
102 | AAGTTCACGTGATGGG | 0.38 kcal/mol
103 | GTGGGCACGTGCAGTC | 0 kcal/mol
104 | TCGCTCACGTGGTGTT | 0.06 kcal/mol
105 | GTATGCACGTGGAGAA | 0.01 kcal/mol
106 | GGGAACACGTGGTGGG | 0.08 kcal/mol
107 | AATATCACGTGTTCTA | 0.16 kcal/mol
108 | GTGTTCACGTGGGGCT | 0.17 kcal/mol
109 | GCGGTCACGTGTATTG | 0.28 kcal/mol
110 | TTGTGCACGTGTAAAC | 0.11 kcal/mol
111 | GACTGCACGTGGAGTT | 0.16 kcal/mol
112 | GTAGGCACGTGGCTGA | -0.16 kcal/mol
113 | GAACTCACGTGTAGGT | 0.22 kcal/mol
114 | ATAGACACGTGTCGTG | 0 kcal/mol
115 | ATTTTCACGTGGGCAG | 0.18 kcal/mol
